Compound in this test: N#CC[C@H](C1CCCC1)n1cc(-c2ncnc3[nH]ccc23)cn1 [Ruxolitinib]
In words: Viability of human cancer cell lines after 72 h of drug (GDSC screen). The procedure: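 Human cancer cell lines in 384-well plates, medium with 10% serum, drug for 72 h over a 256-fold dose range (nine 2-fold or five 4-fold steps up to the top dose). Adherent lines were fixed and stained with the nucleic acid dye Syto60, suspension lines read with resazurin; signal relative to control wells, capped at 0 and 100%. One two-parameter sigmoid per drug and line, fitted in a mixed model over all curves with the slope shared within a line.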

The IC50 comes from the fitted curve, where viability falls to half of the control; fits outside the tested doses are given as limits. AUC is the area under the same curve over the 256-fold range up to the top dose, as a fraction: 1 means no effect, lower means more sensitive.

Turning to “KP-3 (pancreas, adherent, top dose 5.24 µM)”, the AUC worked out at 0.981 and the IC50 was > 5.24 µM.
For the cell line “IGR-37 (melanoma, adherent, top dose 5.24 µM)”, the AUC was found to be 0.989 and the IC50 is > 5.24 µM.
For the cell line “BT-483 (breast, adherent, top dose 5.24 µM)”, the AUC is 0.978 and the IC50 is > 5.24 µM.
Turning to “MMAC-SF (melanoma, adherent, top dose 5.24 µM)”, the AUC is 0.987 and the 50% inhibitory concentration (IC50) was > 5.24 µM.
As to “HSC-2 (head and neck, adherent, top dose 5.24 µM)”, the AUC came to 0.989 and the IC50 was > 5.24 µM.
In the case of “HCC1599 (breast, suspension, top dose 5.24 µM)”, the AUC is 0.977 and the IC50 was > 5.24 µM.
For “OSC-19 (head and neck, adherent, top dose 5.24 µM)”, the AUC was 0.973 and the IC50 is > 5.24 µM.
The like results for “L-1236 (Hodgkin lymphoma, suspension, top dose 5.24 µM)” were, in that order, 0.669 and 0.889 µM.
Regarding “COR-L311 (small cell lung carcinoma, suspension, top dose 5.24 µM)”, the AUC worked out at 0.966 and the IC50 was > 5.24 µM.
On to “HCC-33 (small cell lung carcinoma, adherent, top dose 5.24 µM)”, for which the AUC is 0.981 and the IC50 was > 5.24 µM.
On to “NCI-H847 (small cell lung carcinoma, adherent, top dose 5.24 µM)”, for which the AUC was found to be 0.975 and the IC50 was > 5.24 µM.
On to “NCI-H1838 (lung adenocarcinoma, adherent, top dose 5.24 µM)”, for which the AUC was 0.984 and the IC50 is > 5.24 µM.
As for “A704 (kidney, adherent, top dose 5.24 µM)”, the AUC amounted to 0.989 and the IC50 is > 5.24 µM.
As for “NCI-H716 (large intestine, suspension, top dose 5.24 µM)”, the AUC was determined as 0.918 and the concentration for half-maximal inhibition (IC50) was > 5.24 µM.
Take “HCC1569 (breast, adherent, top dose 5.24 µM)”: the AUC was determined as 0.97 and the IC50 was > 5.24 µM.
As for “HT-1376 (bladder, adherent, top dose 5.24 µM)”, the AUC is 0.985 and the IC50 was > 5.24 µM.
For “KARPAS-299 (anaplastic large cell lymphoma, suspension, top dose 5.24 µM)”, the AUC was determined as 0.958 and the IC50 is > 5.24 µM.
As for “8505C (thyroid, adherent, top dose 5.24 µM)”, the AUC amounted to 0.966 and the IC50 is > 5.24 µM.
In the case of “NCI-H1703 (lung adenocarcinoma, adherent, top dose 5.24 µM)”, the AUC amounted to 0.97 and the IC50 was > 5.24 µM.
Turning to “LN-18 (glioma, adherent, top dose 5.24 µM)”, the AUC was 0.992 and the IC50 was > 5.24 µM.
For “NCI-H1734 (lung adenocarcinoma, adherent, top dose 5.24 µM)”, the AUC turned out to be 0.985 and the IC50 is > 5.24 µM.
On to “KP-1N (pancreas, adherent, top dose 1.024 µM)”, for which the AUC was 0.961 and the IC50 was > 1.02 µM.
The like results for “JHOS-2 (ovary, adherent, top dose 5.24 µM)” were, in that order, 0.971 and > 5.24 µM.
The like results for “SNB75 (glioma, adherent, top dose 5.24 µM)” were, in that order, 0.966 and > 5.24 µM.
“DU-4475 (breast, suspension, top dose 5.24 µM)”: the AUC stood at 0.992 and the IC50 was > 5.24 µM.
On to “HT-115 (large intestine, adherent, top dose 5.24 µM)”, for which the AUC was determined as 0.985 and the IC50 is > 5.24 µM.
For the cell line “CFPAC-1 (pancreas, adherent, top dose 5.24 µM)”, the AUC was determined as 0.984 and the IC50 was > 5.24 µM.
“HT-1197 (bladder, adherent, top dose 5.24 µM)”: the AUC is 0.985 and the IC50 is > 5.24 µM.
The matching figures for “NCI-H1693 (lung adenocarcinoma, adherent, top dose 5.24 µM)”: 0.968 and > 5.24 µM.
In the case of “NCI-H1623 (lung adenocarcinoma, adherent, top dose 5.24 µM)”, the AUC worked out at 0.984 and the IC50 is > 5.24 µM.
Consider “NCI-H1563 (lung adenocarcinoma, adherent, top dose 5.24 µM)”, for which the AUC came to 0.956 and the IC50 is > 5.24 µM.
On to “C-4-I (cervix, adherent, top dose 5.24 µM)”, for which the AUC came to 0.986 and the IC50 was > 5.24 µM.
Take “TE-11 (oesophagus, adherent, top dose 5.24 µM)”: the AUC stood at 0.99 and the IC50 is > 5.24 µM.
The matching figures for “SAS (head and neck, adherent, top dose 5.24 µM)”: 0.971 and > 5.24 µM.
The like results for “ChaGo-K-1 (non-small cell lung carcinoma, adherent, top dose 5.24 µM)” were, in that order, 0.983 and > 5.24 µM.
“Mo-T (hairy cell leukaemia, suspension, top dose 5.24 µM)”: the AUC stood at 0.98 and the IC50 was > 5.24 µM.
Regarding “PA-TU-8902 (pancreas, adherent, top dose 5.24 µM)”, the AUC came out at 0.982 and the IC50 is > 5.24 µM.
As for “JHOS-3 (ovary, adherent, top dose 5.24 µM)”, the AUC worked out at 0.983 and the IC50 is > 5.24 µM.
The like results for “HuO9 (osteosarcoma, adherent, top dose 5.24 µM)” were, in that order, 0.967 and > 5.24 µM.
With “JHU-022 (head and neck, adherent, top dose 5.24 µM)”, the AUC was found to be 0.98 and the IC50 was > 5.24 µM.
Turning to “LU-65 (large cell lung carcinoma, suspension, top dose 5.24 µM)”, the AUC is 0.968 and the IC50 is > 5.24 µM.
For “K2 (melanoma, adherent, top dose 5.24 µM)”, the AUC was 0.98 and the IC50 was > 5.24 µM.
The like results for “OACp4C (oesophagus, adherent, top dose 5.24 µM)” were, in that order, 0.974 and > 5.24 µM.
Turning to “HuP-T4 (pancreas, adherent, top dose 5.24 µM)”, the AUC worked out at 0.96 and the IC50 is > 5.24 µM.
As to “ES1 (Ewing sarcoma, adherent, top dose 5.24 µM)”, the AUC was found to be 0.984 and the IC50 is > 5.24 µM.
The like results for “H2591 (mesothelioma, adherent, top dose 5.24 µM)” were, in that order, 0.978 and > 5.24 µM.
Turning to “CAL-29 (bladder, adherent, top dose 5.24 µM)”, the AUC came out at 0.984 and the IC50 is > 5.24 µM.
The matching figures for “SK-UT-1 (soft tissue, adherent, top dose 5.24 µM)”: 0.989 and > 5.24 µM.
“NB10 (neuroblastoma, adherent, top dose 5.24 µM)”: the AUC came to 0.98 and the IC50 was > 5.24 µM.

For orientation: IC50 means the concentration that inhibits the measured activity by half.

(Values after the supplement of paper PMC4967469.)
